PubChem BioAssay AID686970 (National Center for Advancing Translational Sciences (NCATS), 2013)
Screen size: about 360,000 compounds; about 6,000 (1.7%) were called active. Inconclusive means that the source gave no clear call. Such entries were picked first, then a sample of the others. The call rests on the fitted dose curve; in most records, active means well fitted cell-killing curve with a large enough effect; inconclusive means small, poorly fitted or top-dose-only effect, or effect the other way; inactive means flat fitted curve, though single readings scatter. No potency is given beside an inconclusive call; the fits are too rough.

assay: qHTS for induction of synthetic lethality in tumor cells producing 2HG: qHTS for the HT-1080-NT fibrosarcoma cell line; settings: HT-1080-NT fibrosarcoma viability, CellTiter-Glo ATP luminescence, 48 h; activity, negative = less viability: at 46.1 µM (top of the series) unless noted;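 further: NT is the 2HG producing partner of a matched IDH1 knockdown line; nearly all actives have a fitted effect of over 55% in size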;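 on activity, negative = less viability: 0% = DMSO-treated cells and -100% = media-only wells without cells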
Procedure, shortened: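 750 cells/well, RPMI + 5% FBS; 2 h settle, compound pin-transfer, 48 h at 37 degrees C. CellTiter-Glo 10 min RT, luminescence. Normalized to DMSO and media-only wells.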
Potency means the concentration at half of the fitted maximal effect; tags describe the fitted curve by direction and shape.

| Compound | Potency | activity, negative = less viability |
| --- | --- | --- |
| O=[N+]([O-])c1cccc(N=Nc2ccc(O)cc2O)c1 | inconclusive [cytotoxic, full curve, poor fit] |  |
| O=C(N/N=C/c1ccccn1)c1cccs1 | inconclusive [cytotoxic, single point] |  |
| Cc1ccc(N=C2NC(=O)/C(=C/c3cccn3C)S2)c(C)c1 |  | inactive: -18.3% |
| CC(=O)COc1ccc2c(-c3ccccc3)cc(=O)oc2c1 | inconclusive [cytotoxic, partial curve, poor fit] |  |
| N#C/C(=C\c1cn(Cc2ccc(F)cc2)c2ccccc12)C(=O)NCc1ccco1 | inconclusive [cytotoxic, single point] |  |
| O=C(Nc1ccc(Br)c(C(F)(F)F)c1)c1ccccc1 |  | inactive: -0.333% |
| Clc1ccc(/C=N/Nc2ncnc3ccccc23)cc1Cl |  | inactive: -2.35% |
| COc1ccc(C(NC(=O)C(C)C)c2ccc3cccnc3c2O)cc1 (stereo unspecified) | active: 1.64 µM |  |
| O=C(C1CCN(c2ncnc3c2nc2n3CCCCC2)CC1)N1CCN(c2cccc(Cl)c2)CC1 | inconclusive [cytotoxic, single point] |  |
| COc1ccc(S(=O)(=O)NC(=O)C2(C)CCN2C(=O)Cc2ccccc2Cl)cc1 (stereo unspecified) | inconclusive [cytotoxic, full curve, poor fit] |  |
| Cc1ccc2oc(-c3cccc(NC(=O)c4cc(-n5cnnc5)ccc4Cl)c3)nc2c1 | inconclusive [cytotoxic, single point] |  |
| Cc1nnc(N/N=C/C(C)c2ccccc2)[nH]c1=O (stereo unspecified) | inconclusive [cytotoxic, single point] |  |
| COc1ccccc1CN1CCCC(CN(CCN(C)C)C(=O)c2ccc(C)cc2)C1 (stereo unspecified) |  | inactive: -7.09% |
| Cc1cc(=O)n2c3c(c4c(cc13)c(CN(C)C)cc(=O)n4C)OC2 |  | inactive: -13.1% |
| CCCc1nc2c(=O)n(C)c(=O)nc-2n(C)n1 | active: 3.66 µM |  |
| Cc1ccc(C(=O)NC2CCN(C(=O)Nc3ccccc3)CC2)cc1 | inconclusive [rising, single point] |  |
| Cc1ccc(NC(=S)NC2CC3CCCC(C2)N3Cc2cccs2)cc1 (stereo unspecified) | inconclusive [cytotoxic, single point] |  |
| COc1c(F)c(F)c(C(=O)Nc2ccc3oc(-c4ccncc4)nc3c2)c(F)c1F |  | inactive: 21% |
| Cc1ccc(S(=O)(=O)c2ccc([N+](=O)[O-])o2)cc1 | active: 7.31 µM |  |
| O=C1SC(Nc2ccccc2)C(=O)N1c1ccccc1 (stereo unspecified) |  | inactive: 15% |
| O=C(O)CSc1nc(-c2cccs2)cc(C(F)(F)F)n1 |  | inactive: -0.0398% |
| N#CCC(=O)Nc1ccc(C(=O)OCC(=O)c2ccc3c(c2)OCCO3)cc1 |  | inactive: 16.7% |
| Cc1nnsc1C(=O)NC1CCCc2c1cnn2-c1ccccc1F (stereo unspecified) | inconclusive [cytotoxic, single point] |  |
| COc1ccc(OC)c(NC(=O)Nc2ccc(O)c3ccccc23)c1 | inconclusive [cytotoxic, single point] |  |

| Compound | Potency | activity, negative = less viability |
| --- | --- | --- |
| Cc1ccc(C)c(SCC(=O)NC2CCS(=O)(=O)C2)c1 (stereo unspecified) |  | inactive: 8.74% |
| COc1ccc(CNC(=O)c2cccc3c(-c4cccnc4)coc23)cc1OC | inconclusive [cytotoxic, partial curve] |  |
| CC(=O)Nc1cccc(NC(=O)CCN2C(=O)c3ccccc3S2(=O)=O)c1 |  | inactive: -1.33% |
| O=C(NCCc1ccccc1)C(=O)NCC1OCCN1S(=O)(=O)c1ccc2c(c1)OCCO2 (stereo unspecified) |  | inactive: -21.9% |
| CCOC(=O)c1cc2c(ccn2-c2ccc(F)cc2)n1CC(=O)N1CCN(C(=O)c2ccco2)CC1 |  | inactive: -2.77% |
| O=C(O)c1cccc(NS(=O)(=O)c2ccc(Oc3ccc(S(=O)(=O)Nc4cccc(C(=O)O)c4)cc3)cc2)c1 | inconclusive [rising, single point] |  |
| CCOc1ccc(-c2nnc(NC(=O)CCCOc3cccc(C)c3)o2)cc1 | inconclusive [cytotoxic, single point] |  |
| OC(c1ccccc1)(c1ccccc1)C1CCN(CCCOc2ccc(F)cc2)CC1 | active: 20.6 µM |  |
| CCn1c(NCCCO)nc2c(c1=O)C(C)(CC)Cc1ccccc1-2 (stereo unspecified) | inconclusive [cytotoxic, single point] |  |
| CN(C)c1ccc(C(=O)c2ccc(N(C)C)c3ccccc23)cc1 | inconclusive [cytotoxic, full curve] |  |
| CC1=NNC(=O)/C1=C\c1cn(-c2ccccc2)nc1-c1ccc(F)cc1 | active: 10.3 µM |  |
| CN(Cc1ccccc1)C(=O)c1csc(COCCO)n1 | inconclusive [rising, partial curve] |  |
| COc1ccc(CC(=O)Oc2ccc(C)cc2Br)cc1OC |  | inactive: 2.07% |
| Cc1cccc(-n2c(O)c(C=Nc3cc(O)ccc3C)c3ccccc3c2=O)n1 | inconclusive [cytotoxic, single point] |  |
| CCN(CC)C1Oc2cc3c(cc2C(c2cc(OC)c(O)c(OC)c2)C1C)OCO3 (stereo unspecified) | inconclusive [cytotoxic, single point] |  |
| Cc1[nH]nc(C(F)(F)F)c1N=NN1CCOCC1 | inconclusive [cytotoxic, partial curve] |  |
| COC(=O)[C@]12CCCCC=C1N(Cc1cccc3ccccc13)C(=O)[C@H](CC(=O)NCc1ccc(OC)c(OC)c1)C2 | inconclusive [cytotoxic, single point] |  |
| N#C/C(=C/c1ccc(-c2ccc(S(N)(=O)=O)cc2)o1)c1nc2ccccc2s1 | inconclusive [cytotoxic, single point] |  |
| OC[C@@H]1CN(Cc2ccc(Cl)cc2)C[C@H](n2cnc3c(NCc4ccc(F)cc4)ncnc32)O1 | inconclusive [cytotoxic, single point] |  |
| C/C=C/Cn1c(SCc2ccc(C)cc2)nc2c1c(=O)[nH]c(=O)n2C | inconclusive [cytotoxic, single point] |  |
| COc1ccc(-n2nnnc2-c2ccccc2)cc1 | active: 5.62 µM |  |
| NC1=C(Br)C(=O)c2ncccc2C1=O | active: 3.26 µM |  |
| COC(=O)C1=CN(c2cccc(OCc3ccccc3)c2)C(N)=C(C#N)C1c1ccc(-c2ccccc2)cc1 (stereo unspecified) |  | inactive: 0.871% |
| CCNc1ccc(Br)cc(C(=O)/C=C/c2ccccc2Cl)c1=O | inconclusive [cytotoxic, single point] |  |

| Compound | Potency | activity, negative = less viability |
| --- | --- | --- |
| Cc1ccc(CNC(=O)C(=O)NCC2CCCN2S(=O)(=O)c2cccs2)cc1 (stereo unspecified) |  | inactive: 7.46% |
| Cc1cc2nc(-c3ccc(SCC(=O)N4CCN(C(=O)c5ccco5)CC4)nc3)[nH]c2cc1C | inconclusive [cytotoxic, single point] |  |
| O=C(Nc1ccc([N+](=O)[O-])cc1)N1CCCCC1 |  | inactive: -10.8% |
| C/C(CC(=O)Nc1ccccn1)=N\NC(=O)c1ccccc1O | active: 20.6 µM |  |
| N#CC1=C(N)C2=CCCC[C@H]2[C@H](c2cccc(F)c2)C1(C#N)C#N | inconclusive [cytotoxic, single point] |  |
| COc1ccc(NC(=O)/C(Cl)=C(/Cl)S(=O)(=O)Cc2ccccc2)cn1 | active: 5.8 µM |  |
| Cc1cccc(OCc2nnc(SCC(=O)Nc3sc(C)c(C)c3C#N)n2C)c1 | inconclusive [cytotoxic, single point] |  |
| CC1(C)CC(=O)C=C(c2ccc(-c3ccc4[nH]ccc4c3)cc2)C1=O | inconclusive [cytotoxic, partial curve] |  |
| COCCNc1nc(NCc2cnc(C)cn2)c2sccc2n1 | inconclusive [rising, single point] |  |
| C/C(=N\Nc1cc(-c2ccccc2)nc(-c2ccccc2)n1)c1ccc(O)c(C)c1 | inconclusive [cytotoxic, single point] |  |
| O=C(Nc1ccc(S(=O)(=O)N2CCN(Cc3ccccc3)CC2)cc1)c1cnccn1 |  | inactive: -6.25% |
| CN(C)C(CNC(=O)c1ccc2nc[nH]c2c1)c1ccccc1 (stereo unspecified) | inconclusive [rising, single point] |  |
| CCn1c(=O)c(C(=O)NNC(=O)c2ccccc2F)c(O)c2ccccc21 | inconclusive [cytotoxic, partial curve] |  |
| Cn1ccnc1CN1CCCCC1C(=O)Nc1ccc(Oc2cccnc2)cc1 (stereo unspecified) | inconclusive [cytotoxic, single point] |  |
| Cc1ccc(NC(=O)CN2C(=O)NC(C)(c3ccc(Cl)cc3)C2=O)cc1S(=O)(=O)N1CCOCC1 (stereo unspecified) | inconclusive [cytotoxic, single point] |  |
| CCN(C(=O)c1ccc(S(=O)(=O)N2CCCC2)cc1)C1CCS(=O)(=O)C1 (stereo unspecified) |  | inactive: 7.62% |
| CC1CN(C(=O)c2cc(S(=O)(=O)N3CCCCC3)ccc2Cl)CC(C)O1 (stereo unspecified) |  | inactive: 11.6% |
| CCn1c2ccccc2c2cc(NC(=O)CSc3nnc(-c4cccc(F)c4)o3)ccc21 | active: 13 µM |  |
| O=C(Nc1ccc(Cl)cc1)C1Cc2c(-c3ccccc3Oc3ccccc3)ccnc2O1 (stereo unspecified) | inconclusive [cytotoxic, single point] |  |
| CN(C)c1ccc(-c2n(C)c3ccccc3[n+]2C)cc1 | active: 5.62 µM |  |
| O=C(NCc1ccc2c(c1)OCO2)c1ccc(COc2cc(Cl)ccc2Cl)o1 | inconclusive [cytotoxic, single point] |  |
| Cc1ccc(NC(=O)CSc2nnc(CNC(=O)C34CC5CC(CC(C5)C3)C4)n2-c2ccc(F)cc2)cc1 | inconclusive [cytotoxic, single point] |  |
| O=[N+]([O-])c1ccc(Sc2n[nH]c(-c3ccc(Cl)cc3Cl)n2)nc1 | inconclusive [cytotoxic, single point] |  |
